Source: paper PMC12040169 (PLOS Biology, 2025)
The other results are listed elsewhere or left out.

test system: T1, C. trachomatis L2/434/Bu expressing GFP (CTL2-GFP); design: species or system HeLa; C. trachomatis total inclusion area by high-content imaging, normalised to DMSO; details: total inclusion area; 28.5 h, 10 µM; inhibitor
T1 construct: L2/434/Bu GFP intracellular growth in HeLa cells
Procedure, shortened: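 Imaging read-out: GFP inclusions and Hoechst nuclei captured by high-content imaging after fixation. Inclusion area/number = chlamydial growth; nuclei count = host cell viability. MIC calculated per earlier method.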

| SMILES | % of control remaining |
| --- | --- |
| CC(NS(=O)(=O)c1ccccc1)C(=O)Nc1ccc(S(N)(=O)=O)cc1 (stereo not drawn) [CBK266929] | 128.752 |
| Cc1ccc(S(=O)(=O)N2CCC(n3c(=O)[nH]c4ccccc43)CC2)cc1Cl [CBK149691] | 85.508 |
| CC[C@H]1CN(S(=O)(=O)c2ccccc2)CC[C@H]1CC(=O)N(C)CC#N [CBK289140] | 89.8179 |
| O=C(Nc1ccc(O)cc1C(=O)O)c1cccc(Br)c1 [CBK018511] | 94.1106 |
| COc1ccc(S(=O)(=O)Nc2c(C(=O)O)sc3ncccc23)cc1OC [CBK049979] | 114.562 |
| CCOC(=O)c1cnn(C2CCCN(Cc3cn(C)nc3C)C2)c1 (stereo not drawn) [CBK304044] | 97.6696 |
| O=C(Nc1nc(OCC(F)(F)F)cnc1-c1ccc(Cl)cc1Cl)c1cc2ccccc2s1 [CBK145358] | 70.0267 |
| CC(C)c1ccc(S(=O)(=O)Nc2ccc3[nH]c(C(F)(F)F)nc3c2)cc1 [CBK044470] | 42.6275 |
| O=C(NCc1ccc(Cl)cc1)c1cc(-c2ccc(F)cc2)nc2ccccc12 [CBK294451] | 89.1451 |
| CN(Cc1ccccc1)C(=O)[C@H]1C[C@@H](O)[C@H](O)[C@@H]2N=C(Nc3ccc(Cl)cc3)S[C@@H]21 [CBK288949] | 98.4036 |
| c1cc2c3c(ccc(CSCCc4ccncc4)c3c1)CC2 [CBK261074G] | 76.4527 |
| COc1cccc(NC(=O)CN(c2ccccc2)S(=O)(=O)c2ccc(Cl)cc2)c1 [CBK265366] | 85.3342 |
| Fc1ccc(Nc2cncc(-c3cccs3)n2)cc1Cl [CBK065813] | 55.7687 |
| N#Cc1ccc(Sc2cccc(F)c2)c(F)c1 [CBK002909] | 84.0625 |
| CCc1nccn1CCC(=O)NC1CCCN(Cc2ccccc2F)C1 (stereo not drawn) [CBK306652] | 74.5638 |
| CCNC(=O)c1ccc(-c2ccc(S(C)(=O)=O)cc2)nc1 [CBK158882] | 103.424 |
| CC(NC(=O)N1CCNC(=O)C1)c1ccccc1 (stereo not drawn) [CBK155877] | 95.9925 |
| O=c1n(-c2ccc3c(c2)OCO3)ccn1S(=O)(=O)c1ccc2c(c1)OCCO2 [CBK106636] | 108.437 |
| O=C(Cn1c(-c2ccc(F)cc2)cc2cccnc21)N1CCCC1 [CBK285384] | 80.5943 |
| Cc1cccn2cc(COC(=O)c3ccc(F)cc3N)nc12 [CBK298310] | 83.679 |
| Cc1ccc(C)n1NC(=O)c1ccccc1[N+](=O)[O-] [CBK266151] | 90.2842 |
| N#Cc1cccc(S(=O)(=O)Nc2cccc3[nH]ccc23)c1 [CBK155771] | 90.6684 |
| O=C(Nc1ccccc1C(=O)N1CCN(Cc2ccccc2)CC1)c1ccc(F)cc1 [CBK264948] | 110.727 |
| COc1ccc(CCN(Cc2ccc(Cl)c(Cl)c2)C(=O)NCCCSC)cc1OC [CBK158758] | 79.976 |
| Nc1ncc(-c2cccc(O)c2)nc1-c1ccc(C(=O)NCCO)cc1 [CBK064143] | 90.6785 |
| O=c1c(N2CCNCC2)nccn1CCOc1cccc(Cl)c1Cl [CBK013463] | 81.4952 |

| SMILES | % of control remaining |
| --- | --- |
| CCc1ccc(C(O)CNC2CCN(Cc3cscn3)CC2)cc1 (stereo not drawn) [CBK304733] | 18.6609 |
| CC(C)NCC(O)c1c2c(cc3c1CCC3)CCC2 (stereo not drawn) [CBK012972F] | 77.629 |
| O=C(O)/C=C/C(=O)N1N=C(c2ccc(F)cc2)CC12C(=O)Nc1ccccc12 (stereo not drawn) [CBK286747] | 93.5546 |
| COc1ccc(N2CCN(c3nc(N4CCOCC4)nc(N4CCOCC4)n3)CC2)cc1 [CBK264166] | 94.2815 |
| CC(C)OC(=O)Cn1c(C2CCNCC2)cc2cccnc21 [CBK285075] | 105.549 |
| NC(=O)c1ccc(-c2nccnc2NCCc2ccncc2)cc1 [CBK036644] | 68.9092 |
| CCCNC(=O)CN1C(=O)N2CCCN=C2c2ccccc21 [CBK284405] | 60.1106 |
| O=C(NCCc1ccco1)c1ncoc1-c1ccc(F)cc1 [CBK282247] | 111.623 |
| c1ccc2oc([C@H]3CCN(C4CCOCC4)C3)nc2c1 [CBK289388] | 106.865 |
| O=Cc1c(-[n+]2ccc(-c3ccncc3)cc2)nc([O-])n1-c1ccccc1 [CBK261529] | 82.21 |
| CCC1CCCCN1C(=O)c1ccccc1C(=O)OC (stereo not drawn) [CBK083196] | 87.0325 |
| COc1ccc(CNc2cccc(C(=O)O)c2C)cc1OC [CBK269634] | 106.319 |
| CC(C)C(CCC(=O)Nc1ccc([N+](=O)[O-])cc1O)C(=O)O (stereo not drawn) [CBK268464] | 96.3287 |
| CC(NC(=O)COc1ccc(Cl)cc1)C(=O)O (stereo not drawn) [CBK262112] | 120.784 |
| O=C1N=C(NC2C3CC4CC(C3)CC2C4)OC12CCN(CCC(F)(F)F)CC2 (stereo not drawn) [CBK115640] | 74.4439 |
| CCC(=O)N1CCCCC(NS(=O)(=O)c2ccc(-n3cccn3)cc2)C1 (stereo not drawn) [CBK307398] | 97.601 |
| Cc1cc(CN(C)Cc2ccc3c(c2)n(C)c(=O)n3C)n[nH]1 [CBK281705] | 56.31 |
| N#Cc1c(NC(=O)COc2ccc(Cl)cc2)oc(-c2ccccc2)c1-c1ccccc1 [CBK262938] | 71.9019 |
| CC(C)c1ccc(/C=N/Nc2nc(-c3ccccc3)cs2)cc1 [CBK263091] | 80.4034 |
| Cc1c(C(=O)N2CCC(c3cc4ncccc4[nH]3)CC2)cnn1C [CBK283384] | 109.408 |
| CN(C)c1ccc(CC(=O)Nc2cnc(-c3cccc(C(F)(F)F)c3)c(-c3cccnc3)n2)cc1 [CBK036901] | 112.626 |
| COc1ccccc1NC(=O)NC(=O)C1CCN(CCc2cccs2)CC1 [CBK034912] | 96.5105 |
| CCSc1nn(CC)c2oc3c(c2c1=S)CC(C)(C)OC3 [CBK021960] | 42.8199 |
| COc1ccnc(N2CCN(C(=O)c3cncnc3C)CC2)n1 [CBK304894] | 132.912 |
| COc1ccc2c(c1)C(O)C(NCc1ccccc1)C2 (stereo not drawn) [CBK015469C] | 75.7156 |
